# According to the supplement of paper PMC11417369:
# ± gives the standard deviation of the averaged measurements. This is one part of the list.
# Tested on: PfAP2-EXP AP2 domain (GST-tagged)
# Assay: gcPBM binding intensity (ln(normalized median fluorescence intensity)); higher = stronger DNA binding
# How it was run: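 DNA-binding domains from P. falciparum, fused to GST and produced in E. coli, were put on an Agilent 4 × 180k double-stranded probe array for 1 h in 1× PBS holding 1% milk, 0.2 mg/ml BSA, 0.5% salmon testes DNA and 0.03% Triton X-100. Probes were primer-extended, 36 bp long and drawn from intergenic genomic regions, with negative controls included. After Alexa488 anti-GST antibody detection and a 488 nm scan, binding intensity was set as the highest Masliner-normalised natural-log median intensity across replicate spots of either probe orientation.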
row,Sequence,gcPBM binding intensity (ln)
1,ATTTATGTTATTGTATGTACACAATATAATGTTATT [XGTACX_site5657],8.56 ± 0.32
2,ATATTTTACATATTTGCACACATATATTTAAATACA [CACACA_site4628],8.79 ± 0.21
3,ATAATATATATGAAATGTACATAAATTTAATGCGAC [XGTACX_site5394],9.31 ± 0.42
4,ACACAAAAATAGTTTTTTATATTGTTAACCTTATAT [XGTACX_negctrl_site123],8.51 ± 0.47
5,AAAAAAAAAAAATGTGCACACGCGTACAGACAAAAA [CACACA_site2005],9.11 ± 0.48
6,TAAAAAGTACATTATTCATGGCCTATTACATTTTTT [GTGCAC_negctrl_site282],8.7 ± 0.33
7,ATGTGCACATGTAGAAGTACTTTTTCTTAAAATACT [XGTACX_site8341],8.68 ± 0.16
8,TATGTTTTATATAAGATGCACTTTTGTTATGCTTCA,8.67 ± 0.41
9,CAAATACACGGACACACACACACAAAAAAAAAAAAA [CACACA_site6385],8.38 ± 0.44
10,AAATTATTGTAAAATAGTACAGTGAAACATAAAGTT [XGTACX_site589],8.78 ± 0.47
11,TTTATTTTGTTTTCTTGTACATAAATAATTACATAT [XGTACX_site4227],8.86 ± 0.35
12,TTTATTTGGACATATACACACTTAAATATGTTTATT [CACACA_site6021],8.4 ± 0.31
13,TAAATACAAGTAAAAAGTACAGAAAAATTATATATA [XGTACX_site1758],8.65 ± 0.38
14,TATAATAATTCATAATGTACTTTTATCAAAAAAGTA [XGTACX_site6868],8.15 ± 0.34
15,TGATTCACTATAGTAGTGCATATTATATATATATAT [GTGCAC_site9975],9.88 ± 0.32
16,TATAAAAAATTCAATACACACCATATATAAATATAT [CACACA_site6060],8.38 ± 0.28
17,AAGAGAAATGGGCACACACACACATATTATAGATAT [CACACA_site6828],8.78 ± 0.49
18,ATTCATTTTATTTTTTCACACACACCGATATATATA [CACACA_site9097],8.89 ± 0.43
19,ATTTTTCAATTATGTAGTACATTGATATTTTCATTT [XGTACX_site5369],8.47 ± 0.31
20,ACCCCCATATTCTTTTTACACACTTGAATAAAAAAT [CACACA_site8319],9.62 ± 0.49
21,ATAAATATGGAGCACACACACATAAACATACATATA [CACACA_site421],8.84 ± 0.67
22,TGTGTTCATATATGCACACGCATATATATTATTGTT [CACACA_site3822],8.63 ± 0.23

row,Sequence,gcPBM binding intensity (ln)
1,TGTGTCCATTGAACAGTGCAATAAAAACTTTTACAT,8.78 ± 0.17
2,TTTATATTTATATTGGGTACATAAAAAGCTTGAAAT [XGTACX_site8248],8.54 ± 0.34
3,ATTTTTATTCTTATTACACACCTAAATATAAAATAT [CACACA_site2064],8.72 ± 0.38
4,AAAGGGGAAAATATTATACATATAATAAATCCGTAT [XGTACX_negctrl_site355],8.47 ± 0.38
5,AAAAAAAAAAAACACACACACACACCGATACATACA [CACACA_site8849],8.56 ± 0.57
6,TTTTTTTTTTTGTGGTGTACCTTTATTTCCTTTTAG [XGTACX_site6934],8.57 ± 0.49
7,AGTAATAAAAGTAGAAGTACAATACTTCAAAGATAT [XGTACX_site8562],8.73 ± 0.37
8,TATTTCAAAATATGGGTGCAGTTCTTCATGATATAT [GTGCAC_site9658],8.66 ± 0.085
9,GTTCTAAAAGTTAATGCATGTTATAAGTTTCCCTCT [TGCATGCA_site94],8.81 ± 0.55
10,TGCTATTTTTTCCTTTTTTTGTATCACAATCATATA [CACACA_negctrl_site1576],8.64 ± 0.45
11,TTATACTTTGGGTGGTGTACTATATTATGCTTATAA [XGTACX_site1106],9.16 ± 0.55
12,ATGTATATATTTACGTGTACATATTCATGTGATATC [XGTACX_site5871],8.6 ± 0.35
13,ATTAAACATAAATATGCACACATATACATATATTCA [CACACA_site8850],8.34 ± 0.26
14,TATCTTTTTACAATAGTGCATATGTTATCATTAATA [GTGCAC_site9489],8.75 ± 0.28
15,TTTATTTATTAATACACACACACACCCAGACAAAAT [CACACA_site4292],9.28 ± 0.59
16,ATTTGCCCATTTAATTAACACACAAATGTTTATATT [CACACA_site8145],8.81 ± 0.48
17,AGATATATAAATATTACACACTATATATCTATTTAT [CACACA_site6466],8.49 ± 0.39
18,ACTATTTAATATAGGGTGCAACTTTTTCAAGTAAAT [GTGCAC_site9853],9.06 ± 0.15
19,TTTCTTTTTTGATGCGTGCACATTTGTTTATTTTTC [GTGCAC_site9792],9.03 ± 0.3
20,ATTATATACATTTTAGTGCATTACATAATAATATAA [GTGCAC_site9836],8.84 ± 0.18
21,GTATGCATTATATACACACATACATTTATATATTCT [CACACA_site115],8.73 ± 0.29
22,TTTATTTATTATTGTTGTACACTTTTTATAAAAAAA [XGTACX_site5114],8.71 ± 0.33

row,Sequence,gcPBM binding intensity (ln)
1,ATGTATATAATATTATGTACATATATGAAATATTTT [XGTACX_site8168],8.57 ± 0.28
2,TGTTCTTATTTTATAAGCATATAATTAATCATAATG [CACACA_negctrl_site1493],8.2 ± 0.35
3,ATAAGAAAAGGACACACACACAAAAAAAAAAAAAAA [CACACA_site7351],8.31 ± 0.57
4,TAGTTTTTTATAAAATTATTTATATAAAGGTAAAAA [CACACA_negctrl_site490],8.45 ± 0.54
5,AATATATTATAATATACACACATATATGCTCTTTAA [CACACA_site4131],8.57 ± 0.46
6,ATTTAAAAGAAATAATGTACGAATCATATTTGATAT [XGTACX_site1785],8.4 ± 0.4
7,ATATATTATATATATTTTAAGTAATTTGCAAAAAAT [GTGCAC_negctrl_site361],8.37 ± 0.5
8,ATAGTATCTGGTAGCTGTACGAGTCGTAGAGTGCAG [XGTACX_site2020],8.87 ± 0.35
9,ATTTATTAACCATATACACACATATATTTGTATTTA [CACACA_site6744],8.68 ± 0.4
10,TTCCCTAATATTTGTTGTACTTGTTATATTTTTTTT [XGTACX_site5994],9.02 ± 0.4
11,TATATTTGTAAGAAGAGTACTAAAAAAAGAATAAAG [XGTACX_site8704],8.99 ± 0.38
12,ATATATATATATATATGTACGTACTCAGTTATGCCT [XGTACX_site453],10.1 ± 0.38
13,ATACATATATATATATGTACATATGCACATATATAC [XGTACX_site7209],8.62 ± 0.092
14,AACAATGTTTTCTTGTGTACACATCATTAAAGAAAA [XGTACX_site4726],8.68 ± 0.27
15,TTCTATATAATTCAAACATGCACAGGAAATATTATA [TGCATGCA_site290],9.11 ± 0.43
16,ATAATATATATATATACGCACACTTATGTACGGATT [CACACA_site2120],8.53 ± 0.25
17,AAGAAAAAAGGGGACAAGGCATATCTATATATACAT [TGCATGCA_negctrl_site172],8.71 ± 0.38
18,TATGTAACACATACTTGTACATATATAATTTTTTTA [XGTACX_site6251],8.14 ± 0.34
19,ATATATATATCACGCACACACGAATTTTAAATATAT [CACACA_site5691],9.4 ± 0.11
20,TTATTTTTACAATTTTAATAATAATACTAAAACAAA [XGTACX_negctrl_site538],8.11 ± 0.41
21,TATTGTATGGTAGGATATGATGTTATTTGTTATAAT [CACACA_negctrl_site202],8.38 ± 0.4
22,TCTTTTGCCCAAAAAGGTACACACCACAATTTAAAT [XGTACX_site1482],8.92 ± 0.58

row,Sequence,gcPBM binding intensity (ln)
1,TGCATAATTAAAAATGGTACACTGTATTTATAATAT [XGTACX_site1575],8.51 ± 0.3
2,TATAAATTAAGATAACGTACATATAATAATATAAAC [XGTACX_site487],8.76 ± 0.42
3,TGTACACCCAGAAATGCACACACATATATATATATA [CACACA_site8716],10.1 ± 0.33
4,TGTACAGTATATACAACACACATTTGTATAAATATA [CACACA_site1002],8.59 ± 0.47
5,AATAGAGTTGAATGCACACATACAAATTTTTAGTTT [CACACA_site3564],8.24 ± 0.19
6,TATATATATTTTATGTGTACTCAATGTTATAACGCA [XGTACX_site8360],8.73 ± 0.27
7,TTATATATGACTAACGGTTTTTTTTTTTTTTTTTTT [CACACA_negctrl_site576],8.77 ± 0.11
8,AAAAAAATAATATAAATAATGAAAAGATATAAATAA [GTGCAC_negctrl_site432],8.54 ± 0.35
9,TACATATATAAATATGTACACACATATGTATGATCT [CACACA_site9284],8.51 ± 0.3
10,AATATAAGCAAATACACACACACATATAAATATGTA [CACACA_site7741],8.36 ± 0.46
11,TTATTATATAAAGTTTCACACATTATTTGTTCAAAC [CACACA_site5218],8.3 ± 0.4
12,ATATGAAGTATCGAATTAAGGGCAACAAATAAATTA [CACACA_negctrl_site1116],8.68 ± 0.52
13,ATTGAGAGAAAAAAATGTACTTGATCAAAATGGATA [XGTACX_site1649],8.79 ± 0.55
14,AGTAGTCTGGAGAAGAGTACACAGTATCTGGTAACA [XGTACX_site2032],8.45 ± 0.52
15,TAATATCAATTTTTATGTACTTATATATATATATAT [XGTACX_site5879],10.02 ± 0.099
16,AAAAATCATATAGGTTGTACGGGTAGTTTATTTTAT [XGTACX_site6936],8.54 ± 0.43
17,GTGTATATATGTTATACACACAAAAATATTTTGTAT [CACACA_site265],8.44 ± 0.39
18,AGATCAATAATGACAAGTACACAAAATAACATTTAA [XGTACX_site6968],8.57 ± 0.38
19,AAAATATATTAAGGCACACACATACATATTTATATA [CACACA_site7707],8.59 ± 0.45
20,ACAAAAAAAAAAAAAAAAAAAAAAAAAAAATAATAA [CACACA_negctrl_site1640],7.86 ± 0.5
21,ATTTTGTAAAAGGTCATACACACATATTCAAAAGAA [CACACA_site2946],8.53 ± 0.38
22,AATATATATTAAATATGTACTTATTTTTTGGTTGCT [XGTACX_site3613],8.62 ± 0.31
